Experimental data reported in US8623416B2 (priority 2009, dated 2014).

Conditions: hamster, in vivo, sc

## squalamine phosphate
  response of animals immediately following subcutaneous administration: identical to those observed following administration of the vehicle buffer
